Reference: PubChem BioAssay AID485344 (National Center for Advancing Translational Sciences (NCATS), 2010)
The whole screen tested about 340,000 compounds, of which about 6,900 (2%) were called active. Cut-off read from the data, not from the text of the source: active = inhibition above about 30%; inactive = below that, where a call was filed. Only a part is listed here, and it is no random draw. Where no call is shown, the source filed none.

target: D(2) dopamine receptor (Homo sapiens) (UniProt P14416); assay: HTS Assay for Allosteric Antagonists of the Human D2 Dopamine Receptor: Primary Screen for Antagonists; settings: HEK293 TREx D2 cells, calcium flux, dopamine EC80; at 10 µM; stronger effect = higher value; note: 0% is about no effect
Sequence of UniProt P14416 (P14416 whole entry, looked up): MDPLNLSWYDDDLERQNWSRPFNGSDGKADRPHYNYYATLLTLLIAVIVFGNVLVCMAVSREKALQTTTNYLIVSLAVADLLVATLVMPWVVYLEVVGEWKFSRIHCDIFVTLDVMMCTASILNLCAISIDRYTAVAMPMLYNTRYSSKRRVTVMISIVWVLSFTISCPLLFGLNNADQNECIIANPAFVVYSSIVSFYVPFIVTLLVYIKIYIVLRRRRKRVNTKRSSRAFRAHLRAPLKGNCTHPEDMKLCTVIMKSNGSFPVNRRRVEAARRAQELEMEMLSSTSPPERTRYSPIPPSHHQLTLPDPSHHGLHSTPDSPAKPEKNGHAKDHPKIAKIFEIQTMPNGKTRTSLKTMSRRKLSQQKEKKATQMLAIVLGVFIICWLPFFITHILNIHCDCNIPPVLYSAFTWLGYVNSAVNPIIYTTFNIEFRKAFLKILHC
Method in brief: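 Calcium mobilization kinetics were recorded at 1 s intervals in tetracycline-induced HEK293 T-REx D2 cells, first for 180 s after compound addition and then 180 s after EC80 dopamine.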

Compound	inhibition
CCOC(=O)c1cc2c(=O)n3ccccc3nc2n(Cc2ccco2)c1=NC(=O)c1cccc(C)c1	-0.604%
CCOc1ccccc1NC(=O)c1cc2cc3cc(C)ccc3nc2s1	14.4%
COc1ccc(-n2c(SCC(=O)NCc3ccco3)nc3c([nH]c4ccccc43)c2=O)cc1	-10.7%
Cc1ccc(NC(=O)CSc2nc3ccccc3c(=O)n2CCC(=O)NC2CCCCC2)cc1C	-3.38%
Cc1cccc(N2CCN(C(=O)C3CCN(S(=O)(=O)c4c(C)noc4/C=C/c4ccccc4F)CC3)CC2C)c1 (stereo not given)	11.3%
Cc1ccc(C2C=C(c3ccccc3)Nc3nc(NS(=O)(=O)c4ccc(C)cc4)nn32)cc1 (stereo not given)	5.94%
Cc1ccc2oc(=O)c3cnn(CC(=O)N4CCN(c5ccccc5F)CC4)c3c2c1	26.9%
CCc1ccccc1NC(=O)c1ccc(Cn2nc(N3CCN(c4ccccc4)CC3)ccc2=O)o1	-0.809%
Cc1cc(=O)n(Cc2ccccc2)c2c1c(C)nn2-c1ccccc1	3.31%
Cc1ccc(NC(=O)c2c3c(nc4ccccc24)C(=O)N(C2CCCCC2)C3)cc1F	0.175%
Cc1ccccc1NC(=O)CC1NCCNC1=O (stereo not given)	0.129%
C=CCc1ccccc1OCc1nc2ccc(C)cc2[nH]1	-13.2%
CCOC(=O)c1c(NC(=O)CSc2nc(-c3ccc(OC)cc3)cc(C(F)(F)F)n2)sc(C)c1C	6.51%
Cn1c(=O)n(CC(=O)O)c(=O)c2c1nc1n2CCCN1c1ccc(Cl)cc1	-10.5%
CCN(CC)S(=O)(=O)c1ccc2c(c1)c(=O)c(C(=O)NCCc1ccccc1)cn2C	5.13%
COc1ccc(C2CC(=O)c3cnc4c(-c5ccc(F)cc5)c(C)nn4c3C2)cc1OC (stereo not given)	-7.6%
Cc1csc2nc(COc3ccc(NC(=O)C(C)C)cc3)cc(=O)n12	19.6%
Cc1csc2c(NC3CCN(Cc4ccccc4)CC3)ncnc12	active: 89.2%
CCOC(=O)Cc1c(C)nc2cc(-c3ccc(C(C)(C)C)cc3)nn2c1C	-10.4%
O=C1[C@H]2[C@@H](c3ccc(F)cc3)N3C(=O)N(c4cccc(Br)c4)C(=O)[C@@]3(Cc3ccccc3)[C@H]2C(=O)N1C1CCCCC1	active: 40.9%
CCc1ccc(NC(=O)C2CCCN2S(=O)(=O)c2ccc3nc(-c4ccccc4)[nH]c3c2)cc1 (stereo not given)	-6.72%
Cc1ccc(C(C)C)c(OCCNCCc2ccccc2)c1	active: 41.4%
Cc1ccccc1C(=O)NC(CC(C)C)C(=O)NN1C(=O)c2ccccc2C1=O (stereo not given)	active: 30.5%
CC12CN3CC(C)(CN(C1)C3c1ccc([N+](=O)[O-])o1)C2 (stereo not given)	active: 32.1%

Compound	inhibition
CCOC(=O)c1c(C)oc2nc(C)nc(NCCc3ccc(OC)c(OC)c3)c12	-10.2%
COC(=O)c1sc(N2C(=O)c3oc4ccc(C)cc4c(=O)c3C2c2ccc(O)c(OC)c2)nc1C (stereo not given)	-5.19%
CCCCC(CC)CNC(=O)CCCCn1c(=O)[nH]c2ccsc2c1=O (stereo not given)	4.93%
COC(=O)c1ccc(C(=O)OC)c(NC(=O)c2c(-c3ccccc3)noc2C)c1	12.5%
COc1ccc(CCNc2nc(SCc3ccccc3F)nc3ccccc23)cc1OC	12.4%
COc1cc(CN(C(=O)Nc2cccc(Cl)c2)c2ccccn2)cc(OC)c1OC	11.4%
COC(=O)c1nnn(CC(=O)Nc2c(C)cccc2C)c1N	-10.8%
CC(=O)c1cccc(NC(=O)CCn2nc(C)c(S(=O)(=O)N(C)C)c2C)c1	3.58%
COc1ccccc1CCN1CCCC(CN(C)C(=O)c2ccoc2)C1 (stereo not given)	active: 41.9%
CC(C)c1ccc(S(=O)(=O)N2CCN(CC(=O)Nc3ccccc3C(F)(F)F)CC2)cc1	6.37%
CC(C)CCNC(=O)c1ccc2nc(CCc3ccccc3)oc2c1	8.67%
CC1=C(C(N)=O)C(c2cccc(Br)c2)n2nc(SCc3ccccc3Cl)nc2N1 (stereo not given)	2.43%
CCOc1ccc(CCNC(=O)c2cc3sccc3n2CC)cc1OCC	-4.49%
Fc1ccc(CSc2nncn3c2cc2occc23)c(Cl)c1	-8.32%
Cc1cc(C)c2oc(-c3ccc(NC(=O)COc4ccccc4C)cc3)nc2c1	6.08%
COCCSc1ccccc1C(=O)Nc1ccc(Cl)cc1	active: 57.7%
Cc1nn(CC(=O)NCCc2ccccc2)c(=O)c2nn(-c3ccccc3)c(C)c12	-13.5%
COc1cc(C2C(C(=O)Nc3ccc(Cl)cc3)=C(C)Nc3nc(SC)nn32)cc(OC)c1OC (stereo not given)	-8.11%
Cc1ccc(N(C)S(=O)(=O)c2ccc(-c3coc(C)n3)cc2)cc1	3%
CC1=C(c2ccc(C)c(C)c2)S(=O)(=O)N=C1N1CCC(C(=O)NCc2ccccc2C)CC1	-10.7%
Cc1cccc(-c2noc(-c3ccc(NCc4ccccc4)c([N+](=O)[O-])c3)n2)c1	-28.5%
CC(CCc1ccccc1)NC(=O)c1cnc(Cl)c(Cl)c1 (stereo not given)	active: 43.2%
Cc1ccc(NC(=O)CN2C(=O)COc3ccc(S(=O)(=O)N4CCOCC4)cc32)cc1N(C)C	-8.92%
CCCCCOc1ccccc1CN1C(=O)C(=O)c2cc(C)ccc21	5.49%

Compound	inhibition
Cc1ccc(/C=C/C(=O)N2CCC(c3nc4ccccc4o3)CC2)cc1	-22%
COc1ccc(NC(=O)c2c(NCc3ccc(OC)c(OC)c3OC)sc3c2CCC3)c(OC)c1	-25.3%
Cc1ccc(-n2nc3c(N4CCC(C(=O)NC5CCCCC5)CC4)nnc(C)c3c2C)cc1	-1.81%
Cc1cc2oc(C(=O)Nc3ccc(S(=O)(=O)N4CCC(C)CC4)cc3)cc(=O)c2cc1C	22.8%
CC(C)Cc1ccc(S(=O)(=O)NCc2nc3cccnc3n2Cc2ccccc2)cc1	-3.44%
COc1ccc(-n2ncc(C(=O)N3CCN(C(=O)c4ccco4)CC3)c2C2CCN(C(=O)OC(C)(C)C)CC2)cc1	-7.97%
COc1ccc(-c2ccc(CNCCCSc3nnnn3C)o2)cc1Cl	1.89%
CCn1ccc2cc(S(=O)(=O)N3CCCN(C(=O)Nc4cccc(SC)c4)CC3)ccc21	16%
CCCCN(C)S(=O)(=O)c1ccc(NC2=NS(=O)(=O)c3ccccc32)cc1	8.8%
Cc1ccc(CNC(=O)C2CCC(CNS(=O)(=O)c3ccc(C)cc3)CC2)cc1 (stereo not given)	5.3%
CCN(CC)S(=O)(=O)c1cc(NC(=O)C2CCN(c3ncnc4sc(C)c(C)c34)CC2)ccc1Cl	active: 36.5%
COc1ccc(-n2ccnc2SCC(=O)Nc2cccc(OC)c2)cc1	-21.2%
Cc1ccc(NC(=O)Cn2cc(C(=O)c3ccco3)c3ccccc32)cc1C	13.2%
Cc1cc(OC(C)C(=O)N2CCC(c3nc4ccccc4o3)CC2)ccc1Cl (stereo not given)	1.23%
COc1cccc(CNC(=O)Cn2nc(-c3ccc(C)cc3)ccc2=O)c1	3.15%
Cc1ccc(N(C)C(CNS(=O)(=O)c2ccccc2)c2ccccc2)cc1 (stereo not given)	-5.03%
COc1ccccc1NC(=O)CSc1ccc(-c2ccccn2)nn1	6.14%
Cc1ccc(CSCCNC(=O)C2CCN(S(=O)(=O)Cc3ccccc3)CC2)cc1	15.7%
COc1cccc(OC(=O)CSc2nnc(-c3cccs3)o2)c1	26%
Cc1cc2nn(-c3ccc(F)cc3)nc2cc1NC(=O)c1cccc([N+](=O)[O-])c1C	12.6%
CC(=O)Nc1ccc(Nc2nc3c(S(=O)(=O)c4cc(C)ccc4C)nnn3c3ccsc23)cc1	-12%
Clc1cccc(-c2nc3ccccn3c2Nc2ccc3c(c2)OCCO3)c1	2.87%
COC(=O)c1ccc(Nc2nc(-c3ccccc3Cl)nc3ccccc23)cc1	-4.95%
COc1ccc(N2C(=O)CSC23C(=O)N(CC(=O)Nc2ccccc2F)c2ccccc23)cc1 (stereo not given)	-1.23%

Compound	inhibition
Cc1cccc(C(=O)Nc2cc3nn(-c4ccc(C(C)C)cc4)nc3cc2C)c1	6.75%
CCCCCCNC(=O)c1c[nH]c2ccc(S(=O)(=O)N(C)c3ccc(C(C)C)cc3)cc2c1=O	-12.9%
N#C/C(=C/c1ccccc1Cl)c1nc2ccccc2c(=O)[nH]1	0.836%
Cc1ccc(Cl)cc1N(C)C(=O)c1cc2c(Cl)nc3ccccc3c2s1	-12.5%
COc1ccc(N2CCN(C3(c4ccccc4)C(=O)c4ccccc4C3=O)CC2)cc1	-4.77%
Cc1ccc(Cn2c(CO)cnc2SCC(=O)NCc2ccccc2Cl)cc1	-7.97%
O=C(C1CCC(Cn2c(=O)c3sccc3n(Cc3cccc(F)c3)c2=O)CC1)N1CCOCC1 (stereo not given)	11.1%
Cc1cccn2c(=O)c3cc(C#N)c(=O)n(-c4nnc(SCc5ccc(F)cc5)s4)c3nc12	4.12%
CSc1ccc(CN2CCCC(CNC(=O)c3ccc(F)cc3)C2)cc1 (stereo not given)	active: 40.7%
Cc1cc(C)c(NC(=O)CSc2nc(=O)n(Cc3cccnc3)c3c2CCC3)c(C)c1	11.4%
COc1ccccc1Nc1ncc2c(n1)CCN(Cc1cc(F)cc(F)c1)C2	-9.76%
Cn1c(SCC(=O)Nc2nc3ccccc3s2)ncc(C(=O)Nc2ccc(Cl)cc2)c1=O	-20.6%
CCOCCCNC(=O)c1cn(CC(C)C)c(=O)c2c1c1ccccc1n2C	-8.92%
COc1cccc(NC(=O)Cn2nnc(C(=O)NCc3ccc4c(c3)OCO4)c2N)c1	7.95%
CCN1CCN(c2ncc3c(n2)CCN(Cc2cccc(F)c2F)C3)CC1	7.81%
COC(=O)c1ccccc1NC(=O)c1nn(C)c2c1COc1ccccc1-2	15.9%
CCOc1ccc(NC(=O)CCc2c(C)nc3nc(-c4cc(OC)cc(OC)c4)nn3c2C)cc1	-8.67%
COc1cccc(NC(=O)/C(C#N)=C/c2c(C)n(Cc3ccccc3)c3ccccc23)c1	-10%
CCOC(=O)c1c(C)[nH]c(C)c1S(=O)(=O)N1CCCC(C(=O)Nc2cccc(CC)c2)C1 (stereo not given)	13.3%
c1ccc(-c2cnc(CN3CCN(c4ccccc4)CC3)o2)cc1	active: 77.7%
O=C(Nc1ccc(Cl)c(C(F)(F)F)c1)c1nc2ccccc2nc1N1CCCCC1	-18.1%
COc1ccc(-c2[nH]c3c(c2-c2c(-n4cccc4)n(C)c(=O)[nH]c2=O)c(=O)[nH]c(=O)n3C)cc1F	2.86%
COc1ccc(-n2nnc(-c3nsc(NC(=O)c4cccc(C)c4)n3)c2C)cc1OC	-5.08%
